# Measured values: the antibiotic and cytotoxicity screens of Wong et al. (2023)
# The other results are listed elsewhere or left out.
# Assays:
# HSkMC = human skeletal muscle cells; assay: cytotoxicity call (relative viability < 0.9); conditions: 10 µM
# HepG2 = assay: cytotoxicity call (relative viability < 0.9); conditions: 10 µM
# S. aureus RN4220 = assay: growth inhibition call (relative growth <= 0.2); conditions: 50 µM
Compound,cytotoxicity call (HSkMC),cytotoxicity call (HepG2),growth inhibition call (S. aureus RN4220)
C[N+](C)(C)CCCC[C@@H]1NC(=O)[C@@H]2C[C@H](C(=O)NCc3ccc(F)cc3)[C@H](c3ccc(O)cc3)N2C1=O,inactive,inactive,inactive
COc1cccc(S(=O)(=O)N[C@H]2CC[C@H](CC(=O)NC3CCC3)O[C@H]2CO)c1,inactive,inactive,inactive
C[C@H]1CN([C@@H](C)CO)C(=O)c2cc(NC(=O)Nc3ccccc3)ccc2O[C@@H]1CN(C)S(C)(=O)=O,inactive,inactive,inactive
O=C(CN1CCOCC1)N[C@@H]1CC[C@@H](CCn2cc(C3CCCC3)nn2)O[C@@H]1CO,inactive,inactive,inactive
C[C@@H]1CCCCO[C@@H](CN(C)Cc2ccncc2)[C@H](C)CN([C@@H](C)CO)C(=O)c2cc(NC(=O)Cc3ccccc3)ccc2O1,inactive,inactive,inactive
N[C@@H](Cc1cc(I)c(Oc2ccc(O)c(I)c2)c(I)c1)C(=O)O,inactive,inactive,inactive
C[C@@H]1CCCCO[C@H](CN(C)CC2CCCCC2)[C@@H](C)CN([C@H](C)CO)C(=O)c2cc(NC(=O)CCCN(C)C)ccc2O1,inactive,inactive,inactive
C[C@@H]1CN([C@H](C)CO)C(=O)c2cc(NS(=O)(=O)c3ccc(F)cc3)ccc2O[C@@H]1CN(C)CC1CC1,inactive,inactive,inactive
CN1C(=O)c2cc(NC(=O)c3cccs3)ccc2OC[C@H]2O[C@H](CC(=O)NCC(F)(F)F)CC[C@@H]21,inactive,inactive,inactive
C[C@@H]1CCCCO[C@@H](CN(C)CC2CCCCC2)[C@H](C)CN([C@@H](C)CO)C(=O)c2cc(NC(=O)CCC(F)(F)F)ccc2O1,inactive,inactive,inactive
O=C(O)c1ccc(/C2=C3\C=CC(=N3)/C(c3ccc(C(=O)O)cc3)=c3/cc/c4[n]3[Mn+][n]3c2ccc3/C(c2ccc(C(=O)O)cc2)=C2/C=CC(=N2)\C=4c2ccc(C(=O)O)cc2)cc1,inactive,inactive,inactive
COc1cc2c(cc1OC)[C@@]13ON=C(c4ccc(OCCOC(=O)NCCCCCC(=O)NO)cc4)[C@@H]1CCN3CC2,inactive,inactive,inactive
Cc1noc(C)c1S(=O)(=O)Nc1ccc2c(c1)C(=O)N([C@H](C)CO)C[C@@H](C)[C@@H](CN(C)CC1CCCCC1)OCCCC[C@@H](C)O2,inactive,inactive,inactive
C[C@H]1CCCCO[C@H](CN(C)C(=O)Cc2ccccc2)[C@@H](C)CN([C@@H](C)CO)C(=O)c2cc(NC(=O)Nc3ccc(F)cc3)ccc2O1,inactive,inactive,inactive
C[C@@H]1CCCCO[C@H](CN(C)Cc2ccc(C(F)(F)F)cc2)[C@@H](C)CN([C@H](C)CO)C(=O)c2cc(NC(=O)Nc3ccccc3)ccc2O1,inactive,inactive,inactive
C[C@H](CO)N1C[C@H](C)[C@@H](CN(C)S(=O)(=O)c2ccc(F)cc2)Oc2c(NC(=O)C3CCOCC3)cccc2C1=O,inactive,inactive,inactive
COc1ccc(NC(=O)N(C)C[C@@H]2OCCCC[C@H](C)Oc3ccc(NS(=O)(=O)c4ccc(Cl)cc4)cc3C(=O)N([C@@H](C)CO)C[C@@H]2C)cc1,inactive,inactive,inactive
CNC[C@H]1OCCCC[C@@H](C)Oc2ccc(NC(=O)Nc3ccc(C(F)(F)F)cc3)cc2C(=O)N([C@@H](C)CO)C[C@H]1C,inactive,inactive,inactive
NC(=O)[C@H]1CSCCC(=O)N1,inactive,inactive,inactive
C[C@@H]1CN([C@H](C)CO)S(=O)(=O)c2ccc(C#Cc3cccnc3)cc2O[C@H]1CN(C)C(=O)Nc1ccc2c(c1)OCO2,inactive,inactive,inactive

Compound,cytotoxicity call (HSkMC),cytotoxicity call (HepG2),growth inhibition call (S. aureus RN4220)
C[C@@H]1CN([C@H](C)CO)C(=O)c2cc(NC(=O)c3ccccc3)ccc2O[C@@H](C)CCCCO[C@H]1CN(C)C(=O)Cc1ccccc1,inactive,inactive,inactive
O=c1ccc(-n2cccn2)n[nH]1,inactive,inactive,inactive
C/N=C(\NC)NCCC[C@H](N)C(=O)O,inactive,inactive,inactive
C[C@@H]1CCCCO[C@@H](CN(C)CC2CC2)[C@H](C)CN([C@H](C)CO)C(=O)c2cc(NC(=O)c3ccccc3)ccc2O1,inactive,inactive,inactive
Cc1cccc(CN(C)C[C@@H]2Oc3ncc(-c4cccc(C(F)(F)F)c4)cc3C(=O)N([C@H](C)CO)C[C@@H]2C)c1,inactive,inactive,inactive
CS(=O)(=O)CCC/C(=N\OS(=O)(=O)O)S[C@@H]1O[C@H](CO)[C@@H](O)[C@H](O)[C@H]1O,inactive,inactive,inactive
COc1ccc2c3c(n(c2c1)C)[C@@H](CO)N(C[C@]13CN(C1)C(=O)Cc1ccccc1)C(=O)c1ccccn1,inactive,inactive,inactive
C[C@@H]1CCCCO[C@H](CN(C)S(=O)(=O)c2ccc(Cl)cc2)[C@H](C)CN([C@H](C)CO)C(=O)c2cc(NS(=O)(=O)c3cccs3)ccc2O1,inactive,inactive,inactive
C[C@@H]1CCCCO[C@@H](CN(C)C(=O)Nc2cccc3ccccc23)[C@H](C)CN([C@@H](C)CO)C(=O)c2cc(NS(C)(=O)=O)ccc2O1,inactive,inactive,inactive
COc1ccc(NC(=O)N(C)C[C@H]2OCCCC[C@@H](C)Oc3ccc(NS(=O)(=O)c4c(C)noc4C)cc3C(=O)N([C@H](C)CO)C[C@H]2C)cc1,inactive,inactive,inactive
Cc1cc(C(=O)Nc2cccc3c2O[C@H](CN(C)C(=O)Nc2ccccc2)[C@H](C)CN([C@H](C)CO)C3=O)n(C)n1,inactive,inactive,inactive
CN(C)CC/C=C1/c2ccccc2Sc2ccc(Cl)cc21,inactive,active,inactive
COC1CNC1,inactive,inactive,inactive
C[C@H](CO)N1C[C@H](C)[C@H](CN(C)Cc2ccc(C(=O)O)cc2)OCCCC[C@H](C)Oc2ccc(NC(=O)Nc3ccc(C(F)(F)F)cc3)cc2C1=O,inactive,inactive,inactive
C[C@@H]1CN([C@@H](C)CO)C(=O)c2cc(NC(=O)C3CCCCC3)ccc2O[C@@H](C)CCCCO[C@H]1CN(C)C(=O)Nc1cccc2ccccc12,inactive,inactive,inactive
O=C(CS)NCCCCCNC(=O)[C@@H]1C[C@@H]2C(=O)NCC(=O)N2[C@@H]1c1cccc(OCCO)c1,inactive,inactive,inactive
C[C@@H]1CN([C@@H](C)CO)C(=O)c2cccc(NC(=O)CCCCCC(=O)Nc3ccccc3N)c2O[C@@H]1CN(C)Cc1ccc(-c2ccccc2)cc1,inactive,inactive,inactive
COCCN1C(=O)C[C@@H]2[C@@H]1CCN2S(=O)(=O)c1cn(C)cn1,inactive,inactive,inactive
Cc1c(O)c(=O)ccn1C,inactive,inactive,inactive
